# These are yes or no findings as the source states them, for the method shown. For part of these data: In cells and extracts the contact can be indirect. Some binding calls cover weakened binding; strength is not graded here.
# By UniProt entry, the sequences of proteins in these tests, tags left out. Where a name states a change or a piece, a line headed by the entry shows the natural chain unless it says otherwise.
# UniProt Q9LJX0: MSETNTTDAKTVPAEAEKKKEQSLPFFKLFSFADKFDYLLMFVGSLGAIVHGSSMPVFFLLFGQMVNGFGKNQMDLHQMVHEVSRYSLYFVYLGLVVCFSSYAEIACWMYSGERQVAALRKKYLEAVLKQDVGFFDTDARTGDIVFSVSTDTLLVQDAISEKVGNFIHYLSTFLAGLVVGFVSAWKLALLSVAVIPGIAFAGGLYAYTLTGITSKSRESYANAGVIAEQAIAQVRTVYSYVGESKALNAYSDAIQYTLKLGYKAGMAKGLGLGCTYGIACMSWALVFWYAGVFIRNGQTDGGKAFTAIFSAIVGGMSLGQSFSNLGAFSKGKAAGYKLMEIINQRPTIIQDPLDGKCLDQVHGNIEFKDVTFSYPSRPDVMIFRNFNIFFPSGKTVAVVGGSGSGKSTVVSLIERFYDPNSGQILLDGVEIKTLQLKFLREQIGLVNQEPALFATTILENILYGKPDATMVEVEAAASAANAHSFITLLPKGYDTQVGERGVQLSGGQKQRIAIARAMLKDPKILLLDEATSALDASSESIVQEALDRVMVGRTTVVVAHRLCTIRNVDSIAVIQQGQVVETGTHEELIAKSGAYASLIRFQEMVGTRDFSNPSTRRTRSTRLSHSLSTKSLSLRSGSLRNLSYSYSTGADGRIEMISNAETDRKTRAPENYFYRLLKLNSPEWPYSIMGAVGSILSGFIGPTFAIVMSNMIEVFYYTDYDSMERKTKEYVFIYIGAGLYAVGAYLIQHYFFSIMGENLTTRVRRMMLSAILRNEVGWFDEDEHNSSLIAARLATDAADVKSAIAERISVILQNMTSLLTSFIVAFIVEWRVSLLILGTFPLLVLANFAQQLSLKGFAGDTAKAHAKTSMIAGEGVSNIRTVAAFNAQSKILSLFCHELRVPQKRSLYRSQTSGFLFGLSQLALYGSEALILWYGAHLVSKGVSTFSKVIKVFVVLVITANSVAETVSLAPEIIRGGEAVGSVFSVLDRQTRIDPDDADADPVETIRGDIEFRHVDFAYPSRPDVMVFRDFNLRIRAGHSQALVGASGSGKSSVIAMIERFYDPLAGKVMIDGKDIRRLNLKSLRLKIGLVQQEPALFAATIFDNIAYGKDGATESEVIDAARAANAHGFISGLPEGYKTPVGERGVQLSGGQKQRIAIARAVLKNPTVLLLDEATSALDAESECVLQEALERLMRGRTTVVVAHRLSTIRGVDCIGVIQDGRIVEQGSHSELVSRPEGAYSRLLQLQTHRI
# Columns and labels:
# [1] = target: phot1-YN (Arabidopsis thaliana) (UniProt O48963); assay: split reporter; BiFC: phot1-YN and B19-YC co-expressed in tobacco leaf epidermis; YFP fluorescence at the plasma membrane
# [2] = target: phot1-green fluorescent protein (PHOT1:phot1-GFP) (Arabidopsis thaliana) (UniProt O48963); assay: co-IP; phot1-GFP immunoprecipitated (GFP) from solubilized microsomes of 3-d-old etiolated Arabidopsis seedlings kept dark or exposed to blue light (20 µmol m^-2 s^-1, 5 min; interaction attenuated); immunoblot with anti-GFP and anti-B19
# [3] = target: T1, C-terminus of phot1 including its Ser/Thr kinase domain (amino acids 612-996), two-hybrid bait (Arabidopsis thaliana) (UniProt O48963); assay: two-hybrid; yeast; regions of B19 (and B1) in pGADT7 prey, regions of PHOT1 in pGBKT7 bait; growth on full selection medium
# T1 sequence: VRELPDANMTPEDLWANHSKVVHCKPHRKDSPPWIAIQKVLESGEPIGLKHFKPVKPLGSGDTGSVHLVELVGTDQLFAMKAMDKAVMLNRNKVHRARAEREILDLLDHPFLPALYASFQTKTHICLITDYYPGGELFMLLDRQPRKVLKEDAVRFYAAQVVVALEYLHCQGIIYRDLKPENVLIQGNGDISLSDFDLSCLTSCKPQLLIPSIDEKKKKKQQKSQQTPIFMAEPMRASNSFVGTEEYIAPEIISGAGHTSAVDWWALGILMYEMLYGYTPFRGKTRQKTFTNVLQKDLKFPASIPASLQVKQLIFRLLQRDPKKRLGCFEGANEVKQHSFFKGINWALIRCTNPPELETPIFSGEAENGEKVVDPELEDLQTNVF
substance,measurement,setting,value
B19-YC (from UniProt Q9LJX0 1-1252),binding,[1],binds
"ATP-BINDING CASSETTE B19 (ABCB19), endogenous (from UniProt Q9LJX0 1-1252)",binding,[2],binds
"C-terminus of B19 (B19C, amino acids 1121-1252), two-hybrid prey (from UniProt Q9LJX0 1121-1252) (domain or fragment)",binding,[3],binds
